Reference: the supplement of paper PMC4967469

Key:
Test in all cases: Viability of human cancer cell lines after 72 h of drug (GDSC screen)
Tretinoin = compound: CC1=C(/C=C/C(C)=C/C=C/C(C)=C/C(=O)O)C(C)(C)CCC1 [Tretinoin]; conditions: top dose 10 µM; top dose inferred
Protocol: (§1)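 Human cancer cell lines in 384-well plates, medium with 10% serum, drug for 72 h over a 256-fold dose range (nine 2-fold or five 4-fold steps up to the top dose). Adherent lines were fixed and stained with the nucleic acid dye Syto60, suspension lines read with resazurin; signal relative to control wells, capped at 0 and 100%. One two-parameter sigmoid per drug and line, fitted in a mixed model over all curves with the slope shared within a line.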

GSK690693 = compound: CCn1c(-c2nonc2N)nc2c(C#CC(C)(C)O)ncc(OC[C@H]3CCCNC3)c21 [GSK690693]; conditions: top dose 10.24 µM; top dose inferred
Protocol: as §1

UNC0638 = compound: COc1cc2c(NC3CCN(C(C)C)CC3)nc(C3CCCCC3)nc2cc1OCCCN1CCCC1 [UNC0638]
Protocol: as §1

WH-4-023 = compound: COc1ccc(N(C(=O)Oc2c(C)cccc2C)c2ccnc(Nc3ccc(N4CCN(C)CC4)cc3)n2)c(OC)c1 [WH-4-023]; conditions: top dose 5.12 µM; top dose inferred
Protocol: as §1

SB-505124 = compound: Cc1cccc(-c2[nH]c(C(C)(C)C)nc2-c2ccc3c(c2)OCO3)n1 [SB-505124]; conditions: top dose 10 µM; top dose inferred
Protocol: as §1

BX-795 = compound: O=C(NCCCNc1nc(Nc2cccc(NC(=O)N3CCCC3)c2)ncc1I)c1cccs1 [BX-795]; conditions: top dose 5 µM; top dose inferred
Protocol: as §1

PI-103 = compound: Oc1cccc(-c2nc(N3CCOCC3)c3oc4ncccc4c3n2)c1 [PI-103]; conditions: top dose 10.24 µM
Protocol: as §1

[1] = top dose 20 µM, screen: GDSC drug entry 1236, top dose inferred
[2] = top dose 40 µM, screen: GDSC drug entry 245

| Cell Line | AUC (Tretinoin) | IC50 (Tretinoin) [µM] | AUC (GSK690693) | IC50 (GSK690693) [µM] | AUC (UNC0638; [1]) | IC50 (UNC0638; [1]) [µM] | AUC (UNC0638; [2]) | IC50 (UNC0638; [2]) [µM] | AUC (WH-4-023) | IC50 (WH-4-023) [µM] | AUC (SB-505124) | IC50 (SB-505124) [µM] | AUC (BX-795) | IC50 (BX-795) [µM] | AUC (PI-103) | IC50 (PI-103) [µM] |
| --- | --- | --- | --- | --- | --- | --- | --- | --- | --- | --- | --- | --- | --- | --- | --- | --- |
| Farage (B-cell lymphoma, suspension) | 0.963 | > 10 | 0.485 | 0.588 | 0.992 | > 20 | 0.674 | 6.89 | 0.632 | 0.688 | 0.981 | > 10 | 0.898 | 4.27 | 0.163 | 0.079 |
| GB-1 (glioma, adherent) | 0.929 | > 10 | 0.98 | > 10.2 | 0.971 | > 20 | 0.686 | 9.16 | 0.594 | 0.61 | 0.947 | > 10 | 0.816 | 3.43 | 0.566 | 1 |
| GDM-1 (acute myeloid leukaemia, suspension) | 0.987 | > 10 | 0.748 | 3.16 | 0.828 | 11.7 | 0.571 | 3.88 | 0.6 | 0.596 | 0.959 | > 10 | 0.866 | 4.16 | 0.057 | < 0.04 |
| GI-1 (glioma, adherent) | 0.98 | > 10 | 0.967 | > 10.2 | 0.793 | 8.69 | 0.675 | 7.54 | 0.87 | 4.42 | 0.957 | > 10 | 0.862 | 4 | 0.504 | 0.656 |
| GI-ME-N (neuroblastoma, adherent) | 0.782 | 5.86 | 0.949 | > 10.2 | 0.777 | 11.1 | 0.55 | 3.59 | 0.664 | 1.08 | 0.971 | > 10 | 0.762 | 2.44 | 0.47 | 0.515 |
| GOTO (neuroblastoma, adherent) | 0.885 | > 10 | 0.974 | > 10.2 | 0.686 | 4.47 | 0.709 | 10.6 | 0.9 | > 5.12 | 0.959 | > 10 | 0.929 | > 5 | 0.812 | 6.43 |
| GR-ST (lymphoblastic leukaemia, suspension) | 0.937 | > 10 | 0.789 | 5.62 | 0.677 | 4.34 | 0.574 | 4.16 | 0.937 | > 5.12 | 0.785 | 5.26 | 0.858 | > 5 | 0.227 | 0.0846 |
| GRANTA-519 (B-cell lymphoma, suspension) | 0.989 | > 10 | 0.951 | > 10.2 | 0.973 | > 20 | 0.837 | 23.1 | 0.99 | > 5.12 | 0.97 | > 10 | 0.886 | 4.57 | 0.334 | 0.233 |
| GT3TKB (stomach, adherent) | 0.935 | > 10 | 0.99 | > 10.2 | 0.882 | 16.8 | 0.905 | > 40 | 0.987 | > 5.12 | 0.94 | > 10 | 0.79 | 1.94 | 0.962 | > 10.2 |
| H9 (lymphoid neoplasm, suspension) | 0.991 | > 10 | 0.992 | > 10.2 | 0.789 | 7.16 | 0.989 | > 40 | 0.97 | > 5.12 | 0.988 | > 10 | 0.884 | 3.76 | 0.989 | > 10.2 |
| HA7-RCC (kidney, adherent) | 0.982 | > 10 | 0.983 | > 10.2 | 0.979 | > 20 | 0.984 | > 40 | 0.862 | > 5.12 | 0.96 | > 10 | 0.851 | 4.45 | 0.977 | > 10.2 |
| HAL-01 (lymphoblastic leukaemia, suspension) | 0.9 | > 10 | 0.904 | > 10.2 | 0.829 | 10.5 | 0.739 | 10.9 | 0.969 | > 5.12 | 0.988 | > 10 | 0.89 | 4.59 | 0.056 | < 0.04 |
| HC-1 (hairy cell leukaemia, suspension) | 0.951 | > 10 | 0.912 | > 10.2 | 0.779 | 7.82 | 0.577 | 4.02 | 0.853 | 3.77 | 0.969 | > 10 | 0.978 | > 5 | 0.316 | 0.2 |
| HCC1187 (breast, suspension) | 0.982 | > 10 | 0.885 | 10.2 | 0.848 | 13.8 | 0.9 | > 40 | 0.962 | > 5.12 | 0.956 | > 10 | 0.841 | 3.22 | 0.705 | 2.34 |
| HCC2157 (breast, suspension) | 0.872 | > 10 | 0.802 | 5.33 | 0.986 | > 20 | 0.836 | 28.3 | 0.984 | > 5.12 | 0.975 | > 10 | 0.895 | > 5 | 0.25 | 0.117 |
| HCC2218 (breast, suspension) | 0.965 | > 10 | 0.819 | 7.89 | 0.805 | 13.4 | 0.682 | 9.25 | 0.974 | > 5.12 | 0.964 | > 10 | 0.982 | > 5 | 0.518 | 0.728 |
| HD-MY-Z (Hodgkin lymphoma, adherent) | 0.931 | > 10 | 0.983 | > 10.2 | 0.802 | 9.91 | 0.648 | 6.42 | 0.982 | > 5.12 | 0.972 | > 10 | 0.868 | 4.62 | 0.388 | 0.314 |

By IC50 is meant the dose at which the fit gives 50% viability; a fit beyond the top or the lowest dose is shown as a bound at that dose. AUC sums up the same curve from the lowest dose to the 256-fold higher top dose; values near 1 show little effect. For some assays here: A top dose marked as inferred is not printed in the source and was worked back from the curve model. For some assays here: Where an entry number is given, a second screen of the drug exists; the two often differ.
